Results: a compilation of properties of binary mixtures (doi:10.1016/j.jct.2014.10.022)
The densities may have been worked out from excess volumes.

Experiment: xn = mol fraction of the nth substance listed
Settings: 100 kPa

CC[n+]1ccn(C)c1.O=S(=O)([O-])C(F)(F)C(F)F + CCCC[n+]1ccc(C)cc1.O=S(=O)([N-]S(=O)(=O)C(F)(F)F)C(F)(F)F
mass density [kg/m3]
Settings	x2 = 0.0504	x2 = 0.112	x2 = 0.2211	x2 = 0.3324	x2 = 0.4432	x2 = 0.5529	x2 = 0.6631	x2 = 0.774	x2 = 0.8828	x2 = 0.9517
293.15 K	1434.3	1432.6	–	–	–	1422.7	1421	–	1418	1417.2
303.15 K	1425.8	1424	1421.1	–	1415.6	1413.7	1411.9	1410.1	1408.8	–
313.15 K	–	–	1412.4	1409.5	–	1404.7	–	1401	1399.5	1398.7
323.15 K	1408.8	1406.9	1403.7	1400.6	–	1395.6	1393.7	1391.9	1390.3	1389.4
333.15 K	1400.4	1398.4	1395	1391.8	–	–	–	1382.8	1381.2	1380.2
343.15 K	–	1389.9	1386.4	1383.1	1379.9	1377.7	1375.7	1373.7	1372.1	1371.1
353.15 K	1383.7	1381.5	1377.9	1374.4	1371.2	1368.8	1366.8	–	–	1362

CCCC[n+]1ccc(C)cc1.O=S(=O)([N-]S(=O)(=O)C(F)(F)F)C(F)(F)F + CCOS(=O)(=O)[O-].CC[n+]1ccn(C)c1
mass density [kg/m3]
Settings	x2 = 0.0475	x2 = 0.1177	x2 = 0.226	x2 = 0.3341	x2 = 0.4479	x2 = 0.558	x2 = 0.6663	x2 = 0.7776	x2 = 0.886	x2 = 0.9487
293.15 K	1411.2	–	1389.2	–	1356.5	–	1317.4	1294.7	1270.4	1255
303.15 K	1401.9	1393.8	1380.2	1365.2	1348	–	1309.5	–	1262.9	1247.9
313.15 K	1392.6	1384.7	1371.3	–	1339.5	1321.2	–	1279.5	1255.8	–
323.15 K	1383.5	1375.6	1362.5	1347.9	1331.1	1313	–	–	1248.7	1234.1
333.15 K	1374.4	–	1353.6	–	1322.5	–	–	1264.6	1241.7	1227.2
343.15 K	–	–	1344.8	1330.6	1313.8	1296.2	–	–	1234.5	–
353.15 K	–	1348.6	–	1321.8	1305.3	1288	1270.2	–	1227.5	1213.5
